Assay results: PubChem BioAssay AID2676 (National Center for Advancing Translational Sciences (NCATS), 2010)
Hit rate of the full screen: of about 370,000 compounds, about 1,100 (0.3%) were called active. The inconclusive results got no clear call from the source; some entries with a clear call stand among them for comparison. Calls come from the whole dose curve; as a rule, active = well fitted activation curve with a large enough effect; inconclusive = small, poorly fitted or top-dose-only effect; inactive = flat fitted curve, though single readings scatter. A potency beside an inconclusive call is a rough fit, not a confirmed value.

Molecular target: Relaxin receptor 1 (Homo sapiens) (UniProt Q9HBX9)
UniProt Q9HBX9, sequence (Q9HBX9 whole entry, looked up): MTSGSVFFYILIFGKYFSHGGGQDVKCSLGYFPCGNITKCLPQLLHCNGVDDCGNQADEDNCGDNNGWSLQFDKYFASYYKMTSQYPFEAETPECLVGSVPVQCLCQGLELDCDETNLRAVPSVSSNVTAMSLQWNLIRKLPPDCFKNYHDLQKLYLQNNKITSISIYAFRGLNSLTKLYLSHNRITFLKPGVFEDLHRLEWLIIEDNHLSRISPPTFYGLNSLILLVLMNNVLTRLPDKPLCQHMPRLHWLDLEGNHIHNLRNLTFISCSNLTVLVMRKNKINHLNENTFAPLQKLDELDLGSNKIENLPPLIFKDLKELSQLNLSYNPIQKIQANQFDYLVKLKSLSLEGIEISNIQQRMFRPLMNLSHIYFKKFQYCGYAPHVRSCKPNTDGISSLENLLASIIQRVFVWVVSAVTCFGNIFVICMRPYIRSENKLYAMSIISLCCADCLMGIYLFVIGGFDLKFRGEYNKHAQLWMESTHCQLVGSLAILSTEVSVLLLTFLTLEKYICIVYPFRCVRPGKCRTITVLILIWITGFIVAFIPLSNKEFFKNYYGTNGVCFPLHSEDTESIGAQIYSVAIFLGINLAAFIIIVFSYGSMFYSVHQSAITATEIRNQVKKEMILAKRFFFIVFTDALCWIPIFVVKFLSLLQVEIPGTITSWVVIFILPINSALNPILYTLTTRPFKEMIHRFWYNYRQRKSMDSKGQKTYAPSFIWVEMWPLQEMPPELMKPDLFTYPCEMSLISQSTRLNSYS
Assay: qHTS Assay for Agonists of the Relaxin Receptor RXFP1; note: nearly all actives have a fitted effect of over 60% in size
Conditions: HEK293T-RXFP1 cAMP TR-FRET, 30 min; series mostly up to 57.5 µM; activation: at the top concentration
How it was run: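 Agonist response is measured as cAMP accumulation in an RXFP1-transfected HEK293T line under PDE4 inhibition. Values are scaled between buffer-only and 29 nM porcine relaxin, and EC50s come from standard Hill equation fits.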
% is set by controls: 0 for no effect and ±100 for the full control effect; potency is the fitted concentration of half-maximal effect; tags give direction and shape of the fitted curve.

How did the Potency turn out when `O=S(=O)(Nc1nc2ccccc2nc1Cl)c1ccccc1` was run?
Its Potency is inconclusive: 28.2 µM [activator, partial curve].

With `CCCCn1c(NS(=O)(=O)c2ccccc2)c(S(=O)(=O)c2ccc(C)cc2)c2nc3ccccc3nc21` as the compound, how does the Potency read?
Its Potency is inconclusive: 31.6 µM [activator, single point].

For `Cn1c(=O)[nH]c2nnc(-c3ccc(Cl)c(Cl)c3)nc2c1=O`, which Potency is on record?
The Potency was inconclusive: 14.1 µM [activator, partial curve].

Which “activation” value does the source give for `Cc1cccc(C)c1NC(=O)c1nc(SC(C)C)ncc1Cl` here?
Its value is inactive: 2.3%.

For `O=c1c2cc(Cl)ccc2nc(-c2ccc([N+](=O)[O-])cc2)n1O`, which Potency is on record?
The Potency was inconclusive: 28.2 µM [activator, partial curve].

`COc1ccc(-n2c(SCC(=O)NCc3ccccc3)nc3ccsc3c2=O)cc1` was tested. Which Potency did it give?
The Potency was inconclusive: 39.8 µM [activator, single point].

Which Potency does the source give for `CCOC(=O)CNC(=O)CSc1nc2c(C)cccc2cc1CC` here?
Its Potency is active: 14.1 µM.

With `CC(NC(=O)C12CC3(C)CC(C)(CC(C)(C3)C1)C2)C(=O)O` (centres undefined) as the compound, how does the “activation” value read?
The value was inactive: 0.344%.

With `Cc1noc(NS(=O)(=O)c2ccc(N3Cc4ccccc4C3=O)cc2)c1C` as the compound, how does the Potency read?
Its Potency is inconclusive: 15.8 µM [activator, partial curve].

With `O=C(CCC(=O)OCC(=O)c1ccc(-c2ccccc2)cc1)Nc1cccc(Cl)c1` as the compound, how does the Potency read?
The Potency was inconclusive: 39.8 µM [activator, single point].

For `Cc1nc(-c2ccc(Br)cc2)ccc1C(=O)O`, which Potency is on record?
The Potency was inconclusive: 25.1 µM [activator, partial curve].

With `O=[N+]([O-])c1ccc(OC(F)F)c(/C=N/n2cnnc2)c1` as the compound, how does the “activation” value read?
The value was inactive: -1.16%.

`Cc1ccsc1/C=N/NC(=O)c1ccc(Cn2cc(Br)cn2)o1` was tested. Which “activation” value did it give?
Its value is inactive: -0.749%.

`COc1ccc(S(=O)(=O)N2CCOCC2)cc1NC(=O)Cn1nnc2ccccc2c1=O` was tested. Which Potency did it give?
The Potency was inconclusive: 25.1 µM [activator, partial curve].

How did the Potency turn out when `CCN(Cc1ccccc1)C(=O)Cc1ccc(OC)c(S(=O)(=O)N2CCOCC2)c1` was run?
Its Potency is inconclusive: 39.8 µM [activator, single point].

With `COc1ccc2oc(C(=O)Nc3nc4ccc(S(C)(=O)=O)cc4s3)c(C)c2c1` as the compound, how does the Potency read?
Its Potency is inconclusive: 22.4 µM [activator, partial curve].

How did the “activation” value turn out when `COCCn1c(=NC(=O)c2sc3ccccc3c2Cl)sc2cc(S(N)(=O)=O)ccc21` was run?
The value was inactive: 14.8%.

With `CCOC(=O)N1CCC(NC(=O)c2cc3c(=O)[nH]c4ccccc4c3n2C)CC1` as the compound, how does the Potency read?
Its Potency is inconclusive: 39.8 µM [activator, single point].

`O=C(CCCCCCCC(=O)c1ccccc1)c1ccccc1` was tested. Which “activation” value did it give?
Its value is inactive: 1.57%.

For `CC(=O)c1ccc(/C=C/c2nc3ccccc3n2C)o1`, which Potency is on record?
The Potency was active: 25.1 µM.

For `COC(=O)c1cc(C)[nH]c2c(C)cc3nc4ccccc4c3c12`, which Potency is on record?
Its Potency is inconclusive: 31.6 µM [activator, single point].

For `CCN(CC)S(=O)(=O)c1ccc(N2CCCC2)c(C(=O)OCC(=O)N2CCCC2)c1`, which Potency is on record?
Its Potency is inconclusive: 15.8 µM [activator, partial curve].

With `CCOc1ccc(C(=O)c2cn(CC(=O)Nc3ccc(Cl)cc3)c3cc4c(cc3c2=O)OCCO4)cc1` as the compound, how does the Potency read?
Its Potency is inconclusive: 31.6 µM [activator, single point].

How did the Potency turn out when `COc1ccc(OC)c(CCNc2nc3ccccc3c3nc(-c4cccnc4)nn23)c1` was run?
Its Potency is inconclusive: 35.5 µM [activator, single point].

Which Potency does the source give for `CCn1c(=O)cc(OCC(=O)Nc2cc(Cl)c(OC)cc2OC)c2ccccc21` here?
The Potency was inconclusive: 39.8 µM [activator, single point].

Which “activation” value does the source give for `CCCCCc1ccc(-c2cn(Cc3ccc(C)cc3)nn2)cc1` here?
Its value is inactive: -4.06%.

For `Cc1cccc(N2C(=O)C(O)=C(C(=O)c3cccs3)C2c2ccc(C(C)C)cc2)n1` (centres undefined), which Potency is on record?
The Potency was inconclusive: 22.4 µM [activator, partial curve].

How did the “activation” value turn out when `COc1ccc(N2C3=C(C(=O)CC(C)(C)C3)C(c3ccccc3OC)C3=C2CC(C)(C)CC3=O)cc1` was run?
The value was inactive: -0.658%.

Which “activation” value does the source give for `CCOc1ccc2oc(=O)cc(CN3CCN(C(=O)c4ccc(F)cc4)CC3)c2c1` here?
The value was inactive: 1.02%.

`CC(C)c1nn2c(=O)cc(COc3cccc(NC(=O)c4ccco4)c3)nc2s1` was tested. Which Potency did it give?
Its Potency is inconclusive: 39.8 µM [activator, single point].

`COc1ccc(CNC(=O)c2cc3c(=O)oc4ccc(C)cc4c3s2)c(OC)c1` was tested. Which Potency did it give?
Its Potency is inconclusive: 39.8 µM [activator, single point].

For `O=C(COc1ncnc2ccccc12)Nc1cc(S(=O)(=O)N2CCOCC2)ccc1Cl`, which Potency is on record?
Its Potency is inconclusive: 28.2 µM [activator, partial curve].

With `CCOC(=O)CSc1nc(Cc2ccccc2)nc2ccccc12` as the compound, how does the Potency read?
The Potency was inconclusive: 25.1 µM [activator, partial curve].

`CC(=O)c1ccc(CCCCCCCCCC(=O)O)s1` was tested. Which Potency did it give?
The Potency was inconclusive: 15.8 µM [activator, partial curve].

`COc1cccc(N2CCN(C(=O)c3ccc(Cn4c(=O)[nH]c5cc(OC)c(OC)cc5c4=O)cc3)CC2)c1` was tested. Which “activation” value did it give?
The value was inactive: -1.83%.

How did the Potency turn out when `S=c1nc(-c2ccccc2)[nH]c2ccccc12` was run?
Its Potency is inconclusive: 28.2 µM [activator, partial curve].

For `O=c1c2ccccc2nc2sc(Nc3ccc(F)cc3)nn12`, which Potency is on record?
Its Potency is inconclusive: 6.31 µM [activator, single point].

With `O=C(CSc1n[nH]c(-c2cccs2)n1)N1CCN(S(=O)(=O)c2ccccc2)CC1` as the compound, how does the “activation” value read?
Its value is inactive: 0.759%.

`Cc1c(Cl)cccc1NC(=O)c1cnc2sc(N3CCOCC3)nn2c1=O` was tested. Which Potency did it give?
Its Potency is inconclusive: 39.8 µM [activator, single point].

With `CCn1c(SCC(=O)Nc2ccc(NC(C)=O)cc2)nc2c1c(=O)n(C)c(=O)n2C` as the compound, how does the Potency read?
Its Potency is active: 15.8 µM.

How did the Potency turn out when `O=C(NCCc1ccccc1Cl)c1ccc(Cn2c(=O)c3cccn3c3cccnc32)cc1` was run?
The Potency was active: 22.4 µM.

With `CCOC(=O)c1sc(=NC(=O)c2ccc(S(=O)(=O)N(C)c3ccccc3)cc2)n(C)c1C` as the compound, how does the Potency read?
Its Potency is active: 3.98 µM.

`NC(=O)c1cc(-c2cccnc2)nc2ccc(Br)cc12` was tested. Which Potency did it give?
Its Potency is inconclusive: 25.1 µM [activator, partial curve].

`CCCCN(CC)CCCNC(=O)C1CCN(c2ncnc3c2sc2cccc(F)c23)CC1` was tested. Which Potency did it give?
The Potency was inconclusive: 17.8 µM [activator, partial curve].
